Experimental data from the supplement of paper PMC3334620.
In all, about 33,000 sequences were measured (“E-score (-0.5 to 0.5)”: median about -0.016, highest 2% from about 0.32 on). Some of the results follow.

molecular target: T1, Stp1 (UniProt B3LFK1); experiment: PBM E-score (8-mer binding enrichment) (E-score (-0.5 to 0.5)); higher = stronger / more preferred TF binding; most listed sequences are background and not binding sites; details: protein concentration: 200 nM; construct: GST-full length
T1 sequence: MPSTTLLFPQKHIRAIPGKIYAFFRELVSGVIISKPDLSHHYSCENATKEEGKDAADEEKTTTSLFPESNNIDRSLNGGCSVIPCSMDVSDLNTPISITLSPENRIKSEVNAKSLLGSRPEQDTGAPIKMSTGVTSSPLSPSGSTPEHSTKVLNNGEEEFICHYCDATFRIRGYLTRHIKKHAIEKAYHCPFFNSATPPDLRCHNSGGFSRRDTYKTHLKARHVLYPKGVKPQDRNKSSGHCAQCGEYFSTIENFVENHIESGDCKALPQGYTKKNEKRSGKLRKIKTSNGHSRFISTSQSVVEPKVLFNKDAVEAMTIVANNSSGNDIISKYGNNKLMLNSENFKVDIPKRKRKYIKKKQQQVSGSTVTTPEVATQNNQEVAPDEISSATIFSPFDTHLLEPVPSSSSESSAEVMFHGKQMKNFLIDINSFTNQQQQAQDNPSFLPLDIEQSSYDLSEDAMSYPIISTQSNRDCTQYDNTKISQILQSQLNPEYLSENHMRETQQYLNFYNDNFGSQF
How it was run: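 The E-score, a modified Wilcoxon-Mann-Whitney statistic, was computed by the Universal PBM Analysis Suite for every ungapped eight-base word pooled with its reverse complement. Scans behind it were normalised with masliner after bound GST-tagged yeast transcription factors were detected with fluorescent anti-GST. The proteins, at about 100-200 nM, had been applied to universal all-10-mer Agilent arrays made double-stranded by primer extension.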

Row | Sequence | PBM E-score
1 | AAACTAAT | 0.204
2 | AATCGAAC | -0.00853
3 | AGCCTGCG | -0.245
4 | GTCCCCAC | -0.31
5 | GAGTGGTA | -0.089
6 | ATGTCAAT | 0.171
7 | GTATCAGA | 0.0916
8 | GGACTGCA | -0.229
9 | CAGTTGTC | -0.136
10 | TATAGGAA | -0.0116
11 | GACTCACC | -0.254
12 | GCCACTCA | 0.181
13 | CTTCGAAC | 0.115
14 | CGGACCCC | -0.169
15 | ACATCAGC | -0.00635
16 | CTTGGGTA | 0.0303
17 | ATCGGCGG | 0.262
18 | GACTAGAA | -0.146
19 | ATATTAGG | 0.0795
20 | ACGTTCAA | -0.0326
21 | GGATAACA | 0.017
22 | AGCATGTC | -0.123
23 | ATCGACAA | 0.0613
24 | ATTGCAAT | 0.206
25 | AGGATGGA | -0.172

Row | Sequence | PBM E-score
26 | AGTACCCC | -0.194
27 | GTAGCTCA | -0.0794
28 | TAACGACA | 0.0893
29 | CCCTAGAG | -0.0947
30 | GCCTATCC | -0.0607
31 | GATTCGGC | 0.175
32 | ATCAAAGA | 0.0425
33 | CAAACCTG | -0.00919
34 | GGAGAACA | -0.065
35 | CTAGCAAG | -0.0668
36 | GAAGGAGA | -0.155
37 | ATAACTGG | -0.103
38 | AAATCCAA | 0.0749
39 | CAGAGAGA | -0.235
40 | CAGGGTCA | -0.33
41 | CACGTATC | 0.106
42 | CTGAGCGA | 0.0209
43 | AGGGCGCA | 0.205
44 | GAGGCCTA | -0.162
45 | ATGGAGGA | 0.032
46 | ACAATCCG | -0.0493
47 | GGTAAAAC | -0.0626
48 | CGGTTTCA | -0.0573
49 | CCTTGTGA | 0.134
50 | CGCTGCCC | -0.102

Row | Sequence | PBM E-score
51 | CACAACGA | 0.107
52 | CAAGGTGG | -0.152
53 | AATTATTC | 0.135
54 | CGGGGTAG | -0.281
55 | CAGTGCCG | 0.453
56 | GCAGATTA | 0.0459
57 | AAATCGCA | 0.0877
58 | AGCTAAGG | -0.145
59 | ACCACCAC | -0.225
60 | AGAAATTC | 0.0496
61 | AGTCTGAA | -0.0532
62 | ACGCCTTG | 0.348
63 | ATAGTCTC | 0.157
64 | AAAACAGT | 0.173
65 | ACAGCCCG | -0.3
66 | AGTACGGA | 0.154
67 | ACTCAGAC | 0.0225
68 | AAAGCTTT | 0.0507
69 | AATCTCTG | -0.0845
70 | CAATAAAA | 0.106
71 | CCGGCTGC | 0.0166
72 | CTGATGGA | -0.133
73 | AGAGAGAA | -0.198
74 | AAAAGGCC | 0.174
75 | AACTCCGA | -0.201

Row | Sequence | PBM E-score
76 | ACTAACAG | 0.0277
77 | AGTGTTAA | 0.0806
78 | CCAATTAA | -0.0018
79 | AAAAACGG | 0.217
80 | GAGTCAGA | -0.0166
81 | AGAGGAAA | 0.0686
82 | CTGTAGAA | -0.00291
83 | ACTGAGCC | 0.081
84 | AGGACAAT | 0.0496
85 | ATGCATTA | 0.00806
86 | GATAGCAA | 0.0965
87 | CCGTTATA | -0.00614
88 | ACACAGAG | -0.0898
89 | AAGGCGGC | 0.319
90 | AGGGCAAT | 0.156
91 | CCAGTATC | -0.22
92 | AAGGAAAA | 0.142
93 | GAGTGTAA | -0.192
94 | GAGCTCGC | -0.0438
95 | AGGGAACC | -0.0405
96 | CGATCCTA | -0.163
97 | ACAACGCG | 0.106
98 | CCCGTGCG | 0.332
99 | GGCTAGCA | -0.097
100 | ACCAGATC | -0.0588

Row | Sequence | PBM E-score
101 | ATAATCAT | 0.246
102 | CATGACCA | -0.117
103 | CTATGCGA | -0.258
104 | CCTTGAGA | -0.271
105 | AACTTAAT | 0.111
106 | ACATAGTA | 0.166
107 | AACATATG | 0.0378
108 | AGGGTAAA | -0.0518
109 | CCAATCAA | 0.049
110 | GGTGTCGA | -0.249
111 | CTGAGGAC | -0.184
112 | ACATCTGC | -0.0829
113 | ATCGAACG | 0.141
114 | AAATATGA | 0.0754
115 | ATGACGCC | 0.2
116 | ACCTACCT | -0.185
117 | AAGCACCC | -0.224
118 | CACGGTTC | -0.0181
119 | CCGAATTA | -0.0683
120 | GAATGGGA | -0.228
121 | ATATCTTC | 0.102
122 | CTTGCCCC | -0.165
123 | GATCGTCC | -0.0918
124 | ACTACGTC | -0.116
125 | GCGCAGTA | 0.0213

Row | Sequence | PBM E-score
126 | AGAACAGG | -0.0511
127 | CATAATCC | -0.155
128 | TTGTTAAA | -0.116
129 | TACGAACA | 0.159
130 | CAAATTGA | -0.13
131 | AAGGTGAG | -0.0213
132 | AAGCCTCT | -0.236
133 | AAGCTGCA | 0.0151
134 | ACGCTAGT | -0.139
135 | CGGTGGCC | -0.0772
136 | CGGCAGGA | 0.0983
137 | GAGGCTAA | 0.101
138 | AAAAACTG | -0.166
139 | CCCGCAAC | 0.097
140 | TAGATGAA | 0.123
141 | CGGAAGAA | -0.0809
142 | GCCCTTGA | 0.0731
143 | CTACTGCC | 0.0523
144 | CAACCTCA | -0.103
145 | CAGCATAC | -0.0173
146 | CCCCACTA | -0.185
147 | AGACGCGG | 0.247
148 | GAGGTGCC | 0.233
149 | GGGAATGA | 0.0222
150 | TACGACTA | -0.00785

Row | Sequence | PBM E-score
151 | ATCTATTG | 0.0947
152 | GCCACTTA | 0.104
153 | ACGGGCTC | -0.225
154 | GAACCGTC | -0.11
155 | AGGCACAA | 0.288
156 | AGAGATCT | -0.0664
157 | ACGGTTCA | -0.228
158 | GAGTTACC | -0.0876
159 | GCGCGACA | 0.225
160 | GCACCAAC | 0.114
161 | CAGAGCTC | -0.308
162 | CCTGCGTC | -0.316
163 | CCGGAGCG | -0.0294
164 | AACAAACA | 0.161
165 | GCCAACGA | 0.0454
166 | AAATTTAG | 0.142
167 | CAACGGGC | 0.112
168 | ACAAGTTG | -0.014
169 | GACGGTCC | -0.26
170 | GATGTTCA | -0.0819
171 | AAACGGAG | 0.18
172 | CAACTTAG | 0.13
